In all, about 150,000 compounds went through this assay and about 540 (0.36%) showed an effect of 50% or more. The list shows a part of the results.
System: Plasmodium falciparum
Test: Primary screen in NF54 nanoGlo assay, in single point, at 2uM, 72h; a lower Z score goes with more inhibition
Assay type: functional, Erythrocyte
Settings: timepoint 72 hour

Row | Compound | % Inhibition [%] | Z score
1 | CC(C)c1nnsc1CN1CC(=O)N(c2ccc3cn[nH]c3c2)C[C@@H]1C | -3 | 0.39
2 | CN1C[C@@H](Nc2nccnc2N(C)C)CC1=O | -15 | 1.74
3 | CN1CCCC2CN(CC(=O)Nc3ccc(F)c(Cl)c3)CCC21 (stereo not drawn) | -7 | 0.91
4 | CS(=O)(=O)N1CCCC[C@@H]1CCNc1ccncn1 | 3 | -0.31
5 | CN1C(=O)CC[C@@]12CCN(C(=O)Nc1ccc3c(c1)OCCO3)C2 | -5 | 0.78
6 | Cc1nnc(CN(C)C(=O)c2cccc(-c3n[nH]c(N(C)C)n3)c2)o1 | -6 | 1.09
7 | O=S(=O)(c1ccc2c(c1)CCCC2)N1CC(n2ccnn2)C1 | 4 | -0.49
8 | C[C@H]1CCN(C(=O)NCc2cccc(NC(=O)c3ccco3)c2)C1 | -10 | 1.37
9 | COc1ncccc1C(=O)N1CCC2(CCC(=O)N(Cc3ccccn3)C2)CC1 | -8 | 0.84
10 | Cc1cc(NC(=O)N2CCC(C)(C)[C@@H](c3ccccc3)C2)nn1C | -10 | 1.33
11 | COc1ccccc1-c1n[nH]cc1CN1CCC(N2C[C@H](OC)[C@@H]2c2cccnc2)CC1 | 10 | -1.88
12 | C#CCOc1ccc(N(C)CCOC)cc1 | 1 | -0.14
13 | Cc1ccc(F)c2oc(-c3nc([C@H]4CCC(=O)NC4)no3)cc12 | 0 | -0.04
14 | CCOC(=O)CN1CCS(=O)(=O)c2c(F)c(F)c(C(=O)Nc3cccc(F)c3)c(F)c21 | -8 | 1.51
15 | Cc1ccc(NC(=O)c2cnn3c(-c4cccc(C)c4)ccnc23)cc1 | -5 | 0.68
16 | CCC(C)N(CC(=O)Nc1cccc(C)c1C)C(=O)C1CCOC1 (stereo not drawn) | 0 | -0.05
17 | COc1cccc(CC(=O)OCc2ccccn2)c1 | -9 | 0.77
18 | C(=C\c1ccccc1)/COc1ccc2occ(-c3ccccn3)c2c1 | -6 | 0.68
19 | CC(C)c1nn(C)cc1-c1noc([C@]2(F)CCOC2)n1 | -16 | 3.04
20 | CC(c1ccc(S(C)(=O)=O)cc1)N1CCC2(O)CCCCC2C1 (stereo not drawn) | -7 | 1.25
21 | O=C(c1ccncc1Cl)N1CCC2(CCCC2)C1 | -7 | 0.73

Row | Compound | % Inhibition [%] | Z score
22 | O=C1[C@@H]2C3CCCN3[C@@]3(C(=O)Nc4ccccc43)[C@@H]2C(=O)N1c1cccc(Br)c1 (stereo partly drawn) | -3 | 0.29
23 | Cc1cc(C(=O)N[C@@H](C)c2nc(-c3ccccn3)no2)c(C)n1C | 0 | -0.05
24 | O=C(CCC1CCCCC1)NC1CCN(c2cn[nH]c(=O)c2)CC1 | -10 | 1.05
25 | Cc1csc(C(=O)N2CC[C@H](Oc3ccncn3)C2)c1 | -8 | 1.31
26 | CCC(C)C(NC(=O)OCc1ccccc1)C(=O)NC1CC1 (stereo not drawn) | -5 | 0.97
27 | CCOC(=O)c1noc2ncnc(N3CCN(Cc4ccc5c(c4)OCO5)CC3)c12 | 4 | -0.71
28 | COc1ccccc1N(Cc1cc2cc(C)ccc2[nH]c1=O)C(=O)c1ccco1 | 15 | -1.59
29 | O=C(Cn1nc2c(-c3nc(-c4ccc(Cl)cc4)no3)cccn2c1=O)Nc1ccc(F)cc1 | -13 | 1.71
30 | COC(=O)[C@H](CC(C)C)NC(=O)Cn1nnnc1CN1CCCC1 | -8 | 1.54
31 | c1ccc(-c2csc(Nc3nc(NCc4ccco4)nc(N4CCCCC4)n3)n2)cc1 | 1 | -0.15
32 | CCCO[C@H]1CCCN(c2ncncc2C(=O)O)C1 | -9 | 1.86
33 | Cc1sc(-c2ccccc2F)nc1C(=O)N[C@H]1CCS(=O)(=O)C1 | -22 | 2
34 | CCc1nc2cc(N[C@@H](C(=O)OC)c3cccc(C#N)c3)ccc2o1 | -1 | 0.16
35 | O=C(Cn1c(=O)c2cccn2c2ccc(F)cc21)N1CCN(c2ccc(F)cc2)CC1 | 9 | -1.44
36 | Cc1nccn1CC(=O)NCC1CCN(c2cc(-c3ccccc3)n[nH]2)CC1 | -27 | 2.74
37 | COc1ccc(CNC(=O)[C@@H]2COCC(=O)N2Cc2ccc(C)cc2)c(OC)c1 | 9 | -0.98
38 | CC1CCC(N2CC(=O)N(Cc3ccc4c(c3)OCO4)[C@@H](c3ccc(F)cc3)C2=O)CC1 (stereo partly drawn) | 15 | -1.68
39 | Cc1csc(=O)n1CCN(Cc1ccccc1C(F)(F)F)C1CC1 | 9 | -1.17
40 | CCOc1cnc(C(=O)N2CCS(=O)(=O)C[C@H]2C(C)(C)C)cn1 | 1 | -0.12
41 | CC(C)[C@@H](C(=O)OCc1nnc(-c2ccccc2)o1)c1ccc(Cl)cc1 | -10 | 1.31
42 | Cc1nn(C(=O)CCCC(=O)N2CCC(Cc3nncn3C)CC2)c2ccccc12 | 6 | -0.73

Row | Compound | % Inhibition [%] | Z score
43 | CCn1cc(Cl)c(-c2nc([C@H]3CCOC3)no2)n1 | 7 | -0.84
44 | NCCCOC1CCN(C(=O)c2ncccc2OCC(F)(F)F)CC1 | -5 | 0.6
45 | O[C@]12CCCC[C@H]1[C@H](c1ccc3c(c1)OCO3)NCC2 | -2 | 0.2
46 | CCNC(=O)N1CCC(Cc2ccc(C(=O)N3CCN(c4ncccn4)CC3)cc2)CC1 | 4 | -0.47
47 | O[C@@H]1COCCN(C2CCN(c3ncc4ccc(F)cc4n3)CC2)C1 | -8 | 1.13
48 | Cc1ccsc1CN(CCN(C)C)Cc1ccc(C(F)(F)F)nc1 | -16 | 2.29
49 | Cc1ccc(NC(=O)N[C@H]2c3ccccc3-c3cc(C)ncc32)cc1 | 28 | -3.21
50 | Cn1nc(C2CCCOC2)cc1NC(=O)N[C@@H]1C[C@H]1C1CCCCC1 (stereo partly drawn) | -15 | 1.46
51 | CCOCC[C@H](O)Cn1nnc(-c2ccc(Cl)cc2)c1C | -14 | 1.89
52 | O=C(Nc1ccccc1Oc1ccccc1)c1ccc2ncsc2c1 | -2 | 0.29
53 | COCCn1cnnc1[C@H](C)NS(=O)(=O)c1c(C)cc(C)c2nonc12 | -11 | 1.14
54 | COC(=O)N(C)Cc1ccc(NCc2nccn2C(C)C)cc1 | 0 | 0.09
55 | CCn1cc(NC(=O)c2cncc(-c3ccc4c(c3)CCO4)c2)cn1 | 5 | -0.54
56 | Cc1ccsc1CN(CC(N)=O)C(C)C | -11 | 1.02
57 | CC1(C)CNC(=O)[C@H]1NC(=O)NOCCC(F)(F)F | -4 | 0.63
58 | O=C1N(CCCc2ccccc2)CCC[C@@]1(O)CN1CCN(CCO)CC1 | -6 | 0.71
59 | O=C(COc1ccccc1-c1nc2ccccc2s1)N1CCCc2ccccc21 | 0 | 0
60 | COc1cccc(CN(C)[C@H]2CCS(=O)(=O)C2)n1 | 34 | -3.83
61 | CCc1nn2c(c1-c1ccc(OC)c(S(=O)(=O)N3CCCCC3)c1)NC(=O)CCC2=O | -9 | 1.07
62 | O=C(c1ccccc1F)N1CCCc2cc(S(=O)(=O)N3CCCC3)ccc21 | -15 | 1.96
63 | CCc1nc(C2CCCN2CC(=O)N(C)C(C)c2cccs2)no1 (stereo not drawn) | 28 | -3.15

Row | Compound | % Inhibition [%] | Z score
64 | O=C1CCN(S(=O)(=O)c2ccccc2)CCCN(C(=O)c2cccc3[nH]ccc23)CCN1 | -9 | 1.05
65 | Cn1nccc1-c1ccnc2nc(C3CCCCC3)nn12 | 5 | -0.62
66 | O=C(c1cc(Cl)c(Cl)[nH]1)N1CCC(C(=O)N2CCCCCC2)CC1 | -2 | 0.39
67 | CC1(C(=O)N2C[C@@H](Oc3cccnc3)C[C@H]2C(N)=O)CCCCC1 | 5 | -0.66
68 | COc1ccc(Cn2nc(C)nc2[C@H]2CC23CCC3)cc1 | -16 | 2.34
69 | CN(CC1(O)CCCCCC1)c1nc(C(F)(F)F)ns1 | -5 | 0.79
70 | C[C@H]1C(=O)N(Cc2cccc3occc23)C(=O)N1C | 4 | -0.49
71 | O=S(=O)(c1ccc2c(c1)CCO2)N1CC(OCC(F)(F)F)C1 | -10 | 1.58
72 | O=C(CN1CCC(c2nnc3n2CCC3)CC1)NCc1cccc(Cl)c1 | -14 | 1.46
73 | C#CCCC1(CCC(=O)N2CC[C@](C)(C(N)=O)C2)N=N1 | -13 | 1.57
74 | C#CCN(CC(=O)N1CCCC1)Cc1cccc(C)n1 | -12 | 1.27
75 | CC(C)COc1ccccc1-c1c[nH]c(C(=O)N2CCOCC2)c1 | -18 | 1.78
76 | c1ccc(OCCc2nc3ccccc3[nH]2)cc1 | 2 | -0.32
77 | CC(C)(C)OC(=O)N/N=C(/N)Cc1ccccc1 | -16 | 1.78
78 | COc1ccc(C2NCC3(C)CN2CC(C)C3O)cc1OC (stereo not drawn) | -11 | 1.25
79 | COCc1c(C(=O)N2CCN(CC3CC3)[C@@H]3CS(=O)(=O)C[C@@H]32)noc1C | 11 | -1.43
80 | COc1ccc(-c2nc3cc(C)ccn3c2NC(=O)CCc2ccccc2)cc1 | 5 | -0.92
81 | Cn1nc(C(=O)N2CCCCCCC2)c2ccccc2c1=O | -4 | 0.37
82 | Cn1nc(C2CC2)n(C2CCN(S(=O)(=O)c3ccccc3)CC2)c1=O | 2 | -0.25
83 | CCC(CC)(CNC(=O)c1cnn(C)c1)NC(=O)c1cnn(C)c1 | -1 | 0.21
84 | Cc1nocc1S(=O)(=O)N1CCC[C@H](c2nnc3ccccn23)C1 | -7 | 0.79

Reference: ChEMBL document CHEMBL4888484, “Replenishing the malaria drug discovery pipeline: Screening and hit evaluation of the MMV Hit Generation Library 1 (HGL1) against asexual blood stage Plasmodium falciparum ,using a nano luciferase reporter read-out” (2022)
